In patent US20240209050A1 (LEGEND BIOTECH IRELAND, published 2024):

T1: human IL-15R beta-His (human, UniProt P14784 27-240)
T1 construct: also called human IL-2Rβ; IL-15Rβ; not shown: His tag
T1 sequence (looked up): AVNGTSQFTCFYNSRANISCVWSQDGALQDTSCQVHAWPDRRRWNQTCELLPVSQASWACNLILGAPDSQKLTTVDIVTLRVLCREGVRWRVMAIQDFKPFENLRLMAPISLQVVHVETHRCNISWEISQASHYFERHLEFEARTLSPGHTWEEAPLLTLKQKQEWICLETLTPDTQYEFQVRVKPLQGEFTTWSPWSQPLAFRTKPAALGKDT

B1: IL-15 mutein 1 (A23L), Avi-tagged (ligand)
chain: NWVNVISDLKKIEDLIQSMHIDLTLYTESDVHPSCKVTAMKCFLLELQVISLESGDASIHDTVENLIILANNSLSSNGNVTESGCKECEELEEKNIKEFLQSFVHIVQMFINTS
notes: Tested as crude HEK293 supernatant; the entry already carries A23L; also called m1; not shown: Avi tag
B2: IL-15 mutein 3 (Y26G), Avi-tagged (ligand)
chain: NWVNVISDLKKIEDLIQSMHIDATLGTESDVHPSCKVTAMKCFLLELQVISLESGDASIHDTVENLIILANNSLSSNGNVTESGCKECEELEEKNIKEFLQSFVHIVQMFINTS
notes: Tested as crude HEK293 supernatant; the entry already carries Y26G; also called m3; not shown: Avi tag
B3: IL-15 mutein 6 (T62G), Avi-tagged (ligand)
chain: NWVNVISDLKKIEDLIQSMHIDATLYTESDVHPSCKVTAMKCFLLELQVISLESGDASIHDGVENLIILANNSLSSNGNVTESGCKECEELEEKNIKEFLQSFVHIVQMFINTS
notes: Tested as crude HEK293 supernatant; the entry already carries T62G; also called m6; not shown: Avi tag
B4: IL-15 mutein 2 (L25E), Avi-tagged (ligand)
chain: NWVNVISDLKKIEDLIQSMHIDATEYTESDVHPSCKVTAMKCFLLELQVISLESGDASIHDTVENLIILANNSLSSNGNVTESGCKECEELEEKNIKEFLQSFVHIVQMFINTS
notes: Tested as crude HEK293 supernatant; the entry already carries L25E; also called m2; not shown: Avi tag
B5: IL-15 mutein 7 (T62I), Avi-tagged (ligand)
chain: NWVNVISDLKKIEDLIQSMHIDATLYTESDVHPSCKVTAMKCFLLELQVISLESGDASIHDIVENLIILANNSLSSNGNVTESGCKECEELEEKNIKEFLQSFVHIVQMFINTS
notes: Tested as crude HEK293 supernatant; the entry already carries T62I; also called m7; not shown: Avi tag
B6: IL-15 mutein 5 (D61E), Avi-tagged (ligand)
chain: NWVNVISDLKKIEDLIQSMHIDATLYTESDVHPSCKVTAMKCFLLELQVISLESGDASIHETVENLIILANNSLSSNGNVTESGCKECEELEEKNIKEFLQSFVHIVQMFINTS
notes: Tested as crude HEK293 supernatant; the entry already carries D61E; also called m5; not shown: Avi tag
B7: IL-15 mutein 4 (D8E), Avi-tagged (ligand)
chain: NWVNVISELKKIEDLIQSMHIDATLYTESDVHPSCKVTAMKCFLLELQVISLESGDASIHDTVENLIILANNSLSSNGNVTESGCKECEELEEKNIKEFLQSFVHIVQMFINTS
notes: Tested as crude HEK293 supernatant; the entry already carries D8E; also called m4; not shown: Avi tag

Each binder was assayed against T2, human IL-15R alpha-His (human, UniProt Q13261 31-205, limits assumed) (assay: SPR, Biacore T200; Avi-tagged IL-15 captured via anti-Avi, receptor as analyte; 1:1 fit).
T2 construct: also called human IL-15Rα protein; IL-15Rα; not shown: His tag
Procedure: (§1) Briefly, HEK293 cells were pelleted and the crude IL-15 mutein supernatants were used for affinity measurement by Surface Plasmon Resonance (SPR). The experiment was performed on a Biacore T200 SPR biosensor (GE Healthcare) at room temperature. The anti-Avi tag sensor chips were prepared at 25° C. with a running buffer of 10 mM HEPES, 150 mM NaCl, 3 mM EDTA, and 0.005% (v/v) Tween-20, pH 7.4. All surfaces of a Biacore CM5 sensor chip were activated with a 1:1 (v/v) mixture of 400 mM EDC and 100 mM NHS for 7 minutes, at a flow rate of 10 μL/min. An anti-Avi reagent (Genscript, Cat. No: A00674-200) was diluted to 30 μg/mL in 10 mM sodium acetate (pH 5.0) and injected on all flow cells for 7 minutes at 10 μL/min. All flow cells were blocked with 1 M Ethanolamine-HCl, pH 8.5 for 7 minutes at 10 μL/min.
(§2) Avi-tagged IL-15 muteins were captured on flow cells 2, 3 and 4 at a flow rate of 10 μL/min for 30 seconds. The flow cell 1 was used as a reference surface. Following capture of IL-15 muteins, analytes (human IL-15Rα protein concentration ranging from 0.15625 nM to 1280 nM or human IL-2Rβ concentration ranging from 0.625 nM to 1280 nM) was injected at a flow rate of 30 μL/min in all flow cells for 100 seconds. After each analyte injection, dissociation was monitored for 600 seconds (i.e., human IL-15Rα protein as analyte) or 300 seconds (i.e., human IL-2Rβ protein as analyte), followed by regeneration of all flow cells with three 15-second injections of 10 mM Glycine-HCl, pH2.0. Sensorgrams of buffer cycles were collected for double-referencing purposes (see, e.g., Myszka DG. 1999. Journal of molecular recognition 12: 279-284). For kinetic analysis, the double-referenced sensorgrams were fit globally to a simple 1:1 Langmuir binding model using Biacore T200 Evaluation Software version 3.0.

T2 sequence (Q13261 31-205 limits assumed): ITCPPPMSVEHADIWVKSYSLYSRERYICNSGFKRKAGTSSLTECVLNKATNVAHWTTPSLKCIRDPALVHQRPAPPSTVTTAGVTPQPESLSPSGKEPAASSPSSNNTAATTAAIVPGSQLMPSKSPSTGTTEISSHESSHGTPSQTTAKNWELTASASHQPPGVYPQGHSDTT

Row | Affinity change (muteins/WT) | Kd [nM] | koff [s⁻¹] | kon [M⁻¹ s⁻¹] | Binding Level | Binder
1 | ~0.14 ratio (muteins/WT) | < 0.0017 | 1.7e-05 | > 1e+07 |  | B1
2 | ~2830 ratio (muteins/WT) | 34 | 0.1 | 3e+06 | 24.6 | B2
3 |  | < 0.0083 | 8.3e-05 | > 1e+07 | 20.7 | B3
4 | ~583 ratio (muteins/WT) | 7 | 0.00023 | 32000 | 63.8 | B4
5 | ~0.35 ratio (muteins/WT) | < 0.0042 | 4.2e-05 | > 1e+07 | 33.2 | B5
6 |  | < 0.01 | 0.0001 | > 1e+07 | 37.2 | B6
7 | ~0.25 ratio (muteins/WT) | < 0.003 | 3e-05 | > 1e+07 | 25.3 | B7

Each binder was assayed against T1, human IL-15R beta-His in the same assay as above.
Procedure: as §1, §2

Row | Affinity change (muteins/WT) | Binding Level | Kd [nM] | koff [s⁻¹] | kon [M⁻¹ s⁻¹] | Binder
8 | 0.8 ratio (muteins/WT) | 50.3 | 8.3 | 0.008 | 970000 | B1
9 | 8.5 ratio (muteins/WT) | 46.2 | 86 | 0.0074 | 86000 | B2
10 | 14.4 ratio (muteins/WT) | 14.2 | 150 | 0.082 | 560000 | B3
11 | 286 ratio (muteins/WT) | 5.3 | 2900 | 0.077 | 27000 | B4
12 | > 67 ratio (muteins/WT) | 22.2 | > 670 | > 0.1 | 160000 | B5
13 | 0.3 ratio (muteins/WT) | 30.9 | 3.1 | 0.0021 | 670000 | B6
14 | 20 ratio (muteins/WT) | 3.6 | 200 | 0.0017 | 8400 | B7
